# Test results as given in the supplement of paper PMC8728848.
# The other results are listed elsewhere or left out.
# Key:
# Experiment in all cases: glycan array binding signal (z-score within array); higher = stronger binding
# Details in all cases: glycan notation: IUPAC condensed, linker removed
# [1] = target: Gal(b1-4)GlcNAc(b1-2)[Gal(b1-4)GlcNAc(b1-6)]Man(a1-6)[Gal(b1-4)GlcNAc(b1-2)Man(a1-3)]Man(b1-4)GlcNAc(b1-4)[Fuc(a1-6)]GlcNAc
# Summary of the method: (§1)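 Arrays were curated from the Consortium for Functional Glycomics database, 3228 in total, and kept only where the protein sequence was available. Binding is expressed as a within-array Z-score. This score was averaged across arrays of the same protein sequence at different concentrations or buffers and across linkers, and negative values can be read as non-binding.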
# [2] = target: Gal(b1-4)GlcNAc(b1-2)[Gal(b1-4)GlcNAc(b1-6)]Man(a1-6)[GlcNAc(b1-4)][Gal(b1-4)GlcNAc(b1-2)Man(a1-3)]Man(b1-4)GlcNAc(b1-4)GlcNAc
# Summary of the method: as §1
# [3] = target: Gal(b1-4)GlcNAc(b1-2)[Gal(b1-4)GlcNAc(b1-6)]Man(a1-6)[GlcNAc(b1-4)][Gal(b1-4)GlcNAc(b1-2)[Gal(b1-4)GlcNAc(b1-4)]Man(a1-3)]Man(b1-4)GlcNAc(b1-4)[Fuc(a1-6)]GlcNAc
# Summary of the method: as §1
# [4] = target: Gal(b1-4)GlcNAc(b1-3)Gal(b1-3)GalNAc
# Summary of the method: as §1
# [5] = target: Gal(b1-4)GlcNAc(b1-3)Gal(b1-3)GlcNAc
# Summary of the method: as §1
# [6] = target: Gal(b1-4)GlcNAc(b1-3)Gal(b1-4)Glc
# Summary of the method: as §1
# [7] = target: Gal(b1-4)GlcNAc(b1-3)Gal(b1-4)GlcNAc
# Summary of the method: as §1
# [8] = target: Gal(b1-4)GlcNAc(b1-3)Gal(b1-4)GlcNAc(b1-2)Man(a1-3)[Gal(b1-4)GlcNAc(b1-3)Gal(b1-4)GlcNAc(b1-2)Man(a1-6)]Man(b1-4)GlcNAc(b1-4)GlcNAc
# Summary of the method: as §1
# [9] = target: Gal(b1-4)GlcNAc(b1-3)Gal(b1-4)GlcNAc(b1-2)Man(a1-3)[Gal(b1-4)GlcNAc(b1-3)Gal(b1-4)GlcNAc(b1-2)Man(a1-6)]Man(b1-4)GlcNAc(b1-4)[Fuc(a1-6)]GlcNAc
# Summary of the method: as §1
# [10] = target: Gal(b1-4)GlcNAc(b1-3)Gal(b1-4)GlcNAc(b1-2)[Gal(b1-4)GlcNAc(b1-3)Gal(b1-4)GlcNAc(b1-6)]Man(a1-6)[Gal(b1-4)GlcNAc(b1-3)Gal(b1-4)GlcNAc(b1-2)Man(a1-3)]Man(b1-4)GlcNAc(b1-4)GlcNAc
# Summary of the method: as §1
# [11] = target: Gal(b1-4)GlcNAc(b1-3)Gal(b1-4)GlcNAc(b1-2)[Gal(b1-4)GlcNAc(b1-3)Gal(b1-4)GlcNAc(b1-6)]Man(a1-6)[Gal(b1-4)GlcNAc(b1-3)Gal(b1-4)GlcNAc(b1-2)Man(a1-3)]Man(b1-4)GlcNAc(b1-4)[Fuc(a1-6)]GlcNAc
# Summary of the method: as §1
# [12] = target: Gal(b1-4)GlcNAc(b1-3)Gal(b1-4)GlcNAc(b1-3)Gal(b1-4)GlcNAc
# Summary of the method: as §1
# [13] = target: Gal(b1-4)GlcNAc(b1-3)Gal(b1-4)GlcNAc(b1-3)Gal(b1-4)GlcNAc(b1-2)Man(a1-3)[Gal(b1-4)GlcNAc(b1-3)Gal(b1-4)GlcNAc(b1-3)Gal(b1-4)GlcNAc(b1-2)Man(a1-6)]Man(b1-4)GlcNAc(b1-4)GlcNAc
# Summary of the method: as §1
# [14] = target: Gal(b1-4)GlcNAc(b1-3)Gal(b1-4)GlcNAc(b1-3)Gal(b1-4)GlcNAc(b1-2)Man(a1-3)[Gal(b1-4)GlcNAc(b1-3)Gal(b1-4)GlcNAc(b1-3)Gal(b1-4)GlcNAc(b1-2)Man(a1-6)]Man(b1-4)GlcNAc(b1-4)[Fuc(a1-6)]GlcNAc
# Summary of the method: as §1
# [15] = target: Gal(b1-4)GlcNAc(b1-3)Gal(b1-4)GlcNAc(b1-3)Gal(b1-4)GlcNAc(b1-2)[Gal(b1-4)GlcNAc(b1-3)Gal(b1-4)GlcNAc(b1-3)Gal(b1-4)GlcNAc(b1-6)]Man(a1-6)[Gal(b1-4)GlcNAc(b1-3)Gal(b1-4)GlcNAc(b1-3)Gal(b1-4)GlcNAc(b1-2)Man(a1-3)]Man(b1-4)GlcNAc(b1-4)[Fuc(a1-6)]GlcNAc
# Summary of the method: as §1
# [16] = target: Gal(b1-4)GlcNAc(b1-3)Gal(b1-4)GlcNAc(b1-3)Gal(b1-4)GlcNAc(b1-3)Gal(b1-4)GlcNAc(b1-2)Man(a1-3)[Gal(b1-4)GlcNAc(b1-3)Gal(b1-4)GlcNAc(b1-3)Gal(b1-4)GlcNAc(b1-3)Gal(b1-4)GlcNAc(b1-2)Man(a1-6)]Man(b1-4)GlcNAc(b1-4)GlcNAc
# Summary of the method: as §1
# [17] = target: Gal(b1-4)GlcNAc(b1-3)Gal(b1-4)GlcNAc(b1-3)Gal(b1-4)GlcNAc(b1-3)Gal(b1-4)GlcNAc(b1-2)Man(a1-3)[Gal(b1-4)GlcNAc(b1-3)Gal(b1-4)GlcNAc(b1-3)Gal(b1-4)GlcNAc(b1-3)Gal(b1-4)GlcNAc(b1-2)Man(a1-6)]Man(b1-4)GlcNAc(b1-4)[Fuc(a1-6)]GlcNAc
# Summary of the method: as §1
# [18] = target: Gal(b1-4)GlcNAc(b1-3)Gal(b1-4)GlcNAc(b1-3)Gal(b1-4)GlcNAc(b1-3)Gal(b1-4)GlcNAc(b1-2)[Gal(b1-4)GlcNAc(b1-3)Gal(b1-4)GlcNAc(b1-3)Gal(b1-4)GlcNAc(b1-3)Gal(b1-4)GlcNAc(b1-6)]Man(a1-6)[Gal(b1-4)GlcNAc(b1-3)Gal(b1-4)GlcNAc(b1-3)Gal(b1-4)GlcNAc(b1-3)Gal(b1-4)GlcNAc(b1-2)Man(a1-3)]Man(b1-4)GlcNAc(b1-4)[Fuc(a1-6)]GlcNAc
# Summary of the method: as §1
# [19] = target: Gal(b1-4)GlcNAc(b1-3)Gal(b1-4)GlcNAc(b1-3)Gal(b1-4)GlcNAc(b1-3)Gal(b1-4)GlcNAc(b1-3)Gal(b1-4)GlcNAc(b1-2)Man(a1-3)[Gal(b1-4)GlcNAc(b1-3)Gal(b1-4)GlcNAc(b1-3)Gal(b1-4)GlcNAc(b1-3)Gal(b1-4)GlcNAc(b1-3)Gal(b1-4)GlcNAc(b1-2)Man(a1-6)]Man(b1-4)GlcNAc(b1-4)GlcNAc
# Summary of the method: as §1
# [20] = target: Gal(b1-4)GlcNAc(b1-3)Gal(b1-4)GlcNAc(b1-3)Gal(b1-4)GlcNAc(b1-3)Gal(b1-4)GlcNAc(b1-3)Gal(b1-4)GlcNAc(b1-2)Man(a1-3)[Gal(b1-4)GlcNAc(b1-3)Gal(b1-4)GlcNAc(b1-3)Gal(b1-4)GlcNAc(b1-3)Gal(b1-4)GlcNAc(b1-3)Gal(b1-4)GlcNAc(b1-2)Man(a1-6)]Man(b1-4)GlcNAc(b1-4)[Fuc(a1-6)]GlcNAc
# Summary of the method: as §1
# [21] = target: Gal(b1-4)GlcNAc(b1-3)Gal(b1-4)GlcNAc(b1-3)Gal(b1-4)GlcNAc(b1-3)Gal(b1-4)GlcNAc(b1-3)Gal(b1-4)GlcNAc(b1-2)[Gal(b1-4)GlcNAc(b1-3)Gal(b1-4)GlcNAc(b1-3)Gal(b1-4)GlcNAc(b1-3)Gal(b1-4)GlcNAc(b1-3)Gal(b1-4)GlcNAc(b1-6)]Man(a1-6)[Gal(b1-4)GlcNAc(b1-3)Gal(b1-4)GlcNAc(b1-3)Gal(b1-4)GlcNAc(b1-3)Gal(b1-4)GlcNAc(b1-3)Gal(b1-4)GlcNAc(b1-2)Man(a1-3)]Man(b1-4)GlcNAc(b1-4)[Fuc(a1-6)]GlcNAc
# Summary of the method: as §1
# [22] = target: Gal(b1-4)GlcNAc(b1-3)Gal(b1-4)GlcNAc(b1-3)Gal(b1-4)GlcNAc(b1-3)Gal(b1-4)GlcNAc(b1-3)Gal(b1-4)GlcNAc(b1-3)Gal(b1-4)GlcNAc(b1-2)Man(a1-3)[Gal(b1-4)GlcNAc(b1-3)Gal(b1-4)GlcNAc(b1-3)Gal(b1-4)GlcNAc(b1-3)Gal(b1-4)GlcNAc(b1-3)Gal(b1-4)GlcNAc(b1-3)Gal(b1-4)GlcNAc(b1-2)Man(a1-6)]Man(b1-4)GlcNAc(b1-4)GlcNAc
# Summary of the method: as §1
# [23] = target: Gal(b1-4)GlcNAc(b1-3)Gal(b1-4)GlcNAc(b1-3)GalNAc
# Summary of the method: as §1
binder,measurement,setting,value
"CFEM-SCL (Saccharomyces cerevisiae), O13547 (protein) MRATTLLSSVVSLALLSKEVLATPPACLLACVAQVGKSSSTCDSLNQVTCYCEHENSAVKKCLDSICPNNDADAAYSAFKSSCSEQNASLGD",glycan array binding signal (z-score),[1],-0.059
same,glycan array binding signal (z-score),[2],-0.19
same,glycan array binding signal (z-score),[3],-0.138
same,glycan array binding signal (z-score),[4],-0.282
same,glycan array binding signal (z-score),[5],-0.16
same,glycan array binding signal (z-score),[6],-0.156
same,glycan array binding signal (z-score),[7],-0.182
same,glycan array binding signal (z-score),[8],2.06
same,glycan array binding signal (z-score),[9],-0.053
same,glycan array binding signal (z-score),[10],0.079
same,glycan array binding signal (z-score),[11],0.588
same,glycan array binding signal (z-score),[12],-0.269
same,glycan array binding signal (z-score),[13],1.29
same,glycan array binding signal (z-score),[14],0.117
same,glycan array binding signal (z-score),[15],0.574
same,glycan array binding signal (z-score),[16],-0.022
same,glycan array binding signal (z-score),[17],0.035
same,glycan array binding signal (z-score),[18],0.071
same,glycan array binding signal (z-score),[19],-0.136
same,glycan array binding signal (z-score),[20],-0.165
same,glycan array binding signal (z-score),[21],0.078
same,glycan array binding signal (z-score),[22],-0.115
same,glycan array binding signal (z-score),[23],-0.04
